According to PubChem BioAssay AID1645887 (National Center for Advancing Translational Sciences (NCATS), 2021):
Several values for one entry are separate records, joined by “and”; a condition that tells them apart may be missing. Identical values can stand only once. Hit rate of the full screen: of about 16,000 compounds, about 40 (0.2%) were called active. About 1% were inconclusive and are not listed. Calls follow the shape of the dose curve; as a rule, active = well fitted activation curve with a large enough effect; inconclusive = small, poorly fitted or top-dose-only effect, or another doubt; inactive = no such curve, though single readings can be large or run the other way. This is one part of the list.

molecular target: Rap guanine nucleotide exchange factor 4 (Homo sapiens) (UniProt Q8WZA2); assay: Validation qHTS for agonist of cAMP-regulated guanine nucleotide exchange factor 4 (EPAC2); details: EPAC2 Rap1B BODIPY-GDP exchange, fluorescence; activation: active compounds read high;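 also: exchange makes BODIPY-GDP fluorescence drop when released from Rap1B; series mostly up to about 150 µM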
Summary of the method: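 Signal normalized against 6.5 mM cAMP as agonist control. Mix of EPAC2 (100 nM), RAP1B-BODIPY-GDP (250 nM) and GDP (50 uM) was read kinetically at 480/540 nm, every 5 min over 30 min, after 5 min room-temperature incubation with compound.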
% is scaled to controls: 0 for no effect and ±100 for the full control effect.

Sequence of UniProt Q8WZA2 (Q8WZA2 whole entry, looked up): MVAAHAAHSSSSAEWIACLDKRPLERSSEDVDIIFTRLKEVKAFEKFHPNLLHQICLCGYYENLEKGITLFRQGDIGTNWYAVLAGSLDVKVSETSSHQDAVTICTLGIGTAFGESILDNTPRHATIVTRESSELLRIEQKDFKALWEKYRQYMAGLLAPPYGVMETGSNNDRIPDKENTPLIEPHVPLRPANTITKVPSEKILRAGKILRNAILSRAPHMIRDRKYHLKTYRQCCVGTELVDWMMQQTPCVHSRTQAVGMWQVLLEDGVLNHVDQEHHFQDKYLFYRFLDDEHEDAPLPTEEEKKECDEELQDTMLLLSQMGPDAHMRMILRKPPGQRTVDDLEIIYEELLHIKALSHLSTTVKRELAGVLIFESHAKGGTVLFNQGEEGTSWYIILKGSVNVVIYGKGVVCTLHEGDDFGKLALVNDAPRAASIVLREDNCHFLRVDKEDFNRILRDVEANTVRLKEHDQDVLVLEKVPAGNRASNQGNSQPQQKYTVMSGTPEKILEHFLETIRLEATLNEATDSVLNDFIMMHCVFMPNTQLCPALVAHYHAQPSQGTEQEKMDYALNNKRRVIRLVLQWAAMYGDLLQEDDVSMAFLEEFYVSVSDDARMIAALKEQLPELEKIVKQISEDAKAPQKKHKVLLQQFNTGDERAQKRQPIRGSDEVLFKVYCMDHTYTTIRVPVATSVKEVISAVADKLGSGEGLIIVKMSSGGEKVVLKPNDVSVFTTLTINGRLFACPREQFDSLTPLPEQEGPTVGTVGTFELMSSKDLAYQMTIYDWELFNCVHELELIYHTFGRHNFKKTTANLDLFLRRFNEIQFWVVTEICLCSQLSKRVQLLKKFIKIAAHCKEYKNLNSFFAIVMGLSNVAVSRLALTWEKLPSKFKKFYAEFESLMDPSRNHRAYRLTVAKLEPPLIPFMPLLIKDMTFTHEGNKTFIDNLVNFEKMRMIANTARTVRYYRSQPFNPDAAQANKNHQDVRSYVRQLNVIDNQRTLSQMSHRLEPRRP

activation, inactive:
Cc1cccc(CNC(=O)c2cnn(-c3nccc(-c4ccccc4C(F)(F)F)n3)c2C)n1 -10.7%
COc1ccccc1-c1ccnc(-n2ncc(C(=O)N(C)C(C)c3ccon3)c2C2CC2)n1 (stereo unspecified) -9.56%
COc1ccc(NC(=O)N2CC[C@@]3(CCCN(C(=O)c4ccco4)C3)C2)cc1 -17.6%
Cc1noc(C)c1C(=O)N1CCC2(CCN(C(=O)NC(C)C)CC2)CC1 -9.65%
Cc1cnc(CNc2cc(-c3ccoc3)ncn2)cn1 14%
COc1cc(C)c(CN2CCC3(CCC(CNC(=O)c4ccnn4C)O3)CC2)cc1C (stereo unspecified) 3.87%
O=C(c1cnccn1)N1CCC[C@@]2(CCN(Cc3nccs3)C2)C1 -13.4%
CC1=C(C(=O)OCc2ccccc2)N2C(=O)[C@@H](NC(=O)COc3ccccc3)[C@H]2SC1 -9.76%
COc1c2c(cc3c1C(NC(N)=O)[N+](C)(C)CC3)OCO2 (stereo unspecified) -3.4%
CCCCC/C=C\C/C=C\C/C=C\C=C\[C@@H](O)CCCC(=O)O 2.77%
CCCCCCCCCCCCCCC[C@H](O)[C@@H](N)CO -7.41% and 7.27%
COc1ccc(Oc2ncc3ncc(=O)n(Cc4cccc(OC)c4)c3n2)cc1 1.04%
COC(=O)CCC(C)C1CCC2C3C(O)C[C@@H]4CC(O)CC[C@@]4(C)C3CC(O)[C@]12C (stereo partly specified) -17.8%
C[C@H]1CN(CCc2ccccc2)C(=O)[C@@H]1CC(=O)NCc1ccccc1 -6.92%
COc1cccc(-c2cc(NCc3ccccc3OC)ncn2)c1 12.6%
CCCCN(CCCC)CC(O)c1cc(Cl)cc2c1-c1ccc(Cl)cc1/C2=C/c1ccc(Cl)cc1 (stereo unspecified) -0.0196%
COc1cc2[nH]c(C)c(CCN3CCN(c4ccccc4)CC3)c2cc1OC 7.1%
Cc1cc(O)cc(C)c1Cl -15.3% and -5.75%
Cc1noc(C)c1-c1cc(Nc2ccccc2)ncn1 -22.3%
C[C@@H]1CCC[C@H](C)N1 -9.63%
Oc1cccc(O)c1 -12.1% and -12.4%
O=C(Nc1nccs1)[C@@H]1CC=C[C@@H]2CCN(C3CC3)C(=O)[C@@H]21 -19.1%
O=C1C=CC(=O)c2c(O)c(Cl)c(Cl)c(O)c21 -16.4%
COc1cc2c(cc1O)-c1ccccc1CN(C)C2 -13.8%
CCC(=O)OCC(=O)[C@@]1(OC(=O)CC)[C@H](C)C[C@H]2[C@@H]3CCC4=CC(=O)C=C[C@]4(C)[C@@]3(F)[C@@H](O)C[C@@]21C -3.83%
COC(=O)N1CCC2(CC1)CCN(c1ccccn1)CC2 -2.59%
Cc1nc2cnc(N3CCN(C)CC3)nc2n(Cc2ccc(F)cc2)c1=O 6.43%
COc1cc(C2=N/C(=C\c3ccccc3)C(=O)O2)cc(OC)c1OC -12%
COC(=O)CCC(=O)CN -9.95%
C[C@@H]1CCC(=O)N(C[C@@H](C)CSc2ccccc2)CC1 -34.9%
Clc1ccccc1CNCC1CCC(CNCc2ccccc2Cl)CC1 (stereo unspecified) -8.47%
C=C1CCC(C2CC(=O)OC2=O)C(=O)CCC2C1CC2(C)C (stereo unspecified) -3.18%
CCC(=O)N[C@@H]1Cc2ccccc2[C@@H](c2ccccc2)C1 -19.1%
O=C(O)c1cc(=O)c2c(Cl)cc(Cl)cc2[nH]1 -9.62% [middle of 4 runs]
CC1(C)S[C@@H]2[C@H](NC(=O)C3(N)CCCCC3)C(=O)N2[C@H]1C(=O)O 5.29%
O=C(O)c1ccccc1S -5.86%
CN(C)c1ncc2nc(-c3cc(F)cc(F)c3)c(=O)n(CCC#N)c2n1 -5.46%
COC(=O)N1CCC[C@@]2(CCN(c3ccccc3)C2)C1 4.39%
C1CCc2nnnn2CC1 -21.1% and -4.99% and -42.1%
c1cncc(CNc2cc(-c3ccc4c(c3)OCO4)ncn2)c1 -10.6%
Cn1cccc1C(=O)N1CCC[C@@]2(CCN(Cc3ccc(C#N)cc3)C2)C1 -9.11%
COc1ccc2cc(CN(C(=O)c3cc(C)nn3C)C3CC3)c(-c3ccc(Cl)cc3)nc2c1 8.83%
O=[N+]([O-])c1ccc(CSc2ncnc3c2ncn3[C@@H]2O[C@H](CO)[C@@H](O)[C@H]2O)cc1 -18%
CNC[C@@H](O)[C@@H](O)[C@H](O)[C@H](O)CO -3.34%
O=Nc1ccc2oc(=O)ccc2c1 -41.2%
CC[C@H]1OC(=O)[C@H](C)[C@@H](O[C@H]2C[C@@](C)(OC)[C@@H](O)[C@H](C)O2)[C@H](C)[C@@H](O[C@@H]2O[C@H](C)C[C@H](N(C)C)[C@H]2O)[C@](C)(O)C[C@H](C)C(=NOCOCCOC)[C@H](C)[C@@H](O)[C@]1(C)O -4.72%
O=S(=O)(c1ccccc1)N1CCC2(CCCN(Cc3ccncc3)C2)CC1 -9.24%
CC(N)CCCC(C)(C)O (stereo unspecified) 6.8%
Cn1cc(-c2nc3cnc(Oc4ccccc4)nc3n(C3CC3)c2=O)c2ccccc21 -0.893%
CCCCC[C@H](O)/C=C/[C@@H]1[C@H]2C/C(=C/CCCC(=O)O)C[C@H]2C[C@H]1O -8.43%
COc1cccc(Nc2ncc3ncc(=O)n(Cc4ccc(F)cc4)c3n2)c1 -23.6%
CCCOc1ccc2nc(NC(=O)OC)sc2c1 7%
N#CCC(=O)NN -22.5%
CC(=C(CCOP(=O)(O)O)SC(=O)c1ccccc1)N(C=O)Cc1cnc(C)nc1N -8.33%
Cc1cccc(C)c1NC(=O)CN1CCCC1 -11.9%
O=C(c1ccco1)N1CCC2(CC1)CCN(c1cccc(-c3ccccc3)c1)CC2 -6.49%
